# Whole data set: some 33,000 sequences, median “E-score (dimensionless, -0.5 to 0.5)” near -0.058, cut for the highest 2% near 0.35. This is one part of the list.
# System: MvaT
# Experiment: PBM 8-mer E-score (mean of HK and ME arrays) (E-score (dimensionless, -0.5 to 0.5)); higher = stronger relative binding preference; most listed sequences are background and not binding sites
# Method in brief: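 Full-length P. aeruginosa MvaT carrying an N-terminal glutathione S-transferase tag was tested by protein binding microarray following a previously described protocol. Two universal double-stranded 60-mer arrays, ME and HK, were used, each with a constant 25-mer primer region and a variable 35-mer region covering all 8-mers. The rank-based E-score is the mean of the two arrays, parsed with a custom script. Its range runs from -0.5 to 0.5 for each 8-mer.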
row,Sequence,PBM 8-mer E-score
1,CTGTCTTA,0.224
2,AGACACGG,-0.115
3,CGACTAGC,-0.196
4,ATGCCCCA,-0.194
5,AGCCGAGA,-0.121
6,GGCACCCC,-0.349
7,AACATCTG,0.0268
8,CTGTGACA,-0.106
9,ATAGACGC,0.122
10,CCGCTGCA,-0.0655
11,ATCAGGAA,0.112
12,CTGCGAAG,-0.175
13,AACAGAGC,0.00269
14,GGACTGCC,-0.302
15,ATTAGCAC,0.0511
16,CTACCCCC,-0.195
17,GAGCCGCA,-0.38
18,CCGACCGA,-0.228
19,TCGCGGAA,0.0201
20,GAATCTGC,-0.188
21,GGACTATA,0.155
22,AGGTACCG,-0.0332

row,Sequence,PBM 8-mer E-score
1,CGAATTGC,0.0872
2,GAGCTTGC,-0.211
3,ACAATTGG,0.189
4,AACATTTC,0.231
5,GACGTGGA,-0.112
6,AAGTAGCC,-0.0547
7,AGAGAGAC,-0.208
8,GCGAATTA,0.194
9,GGTAATCA,0.116
10,CTTGCGTC,-0.136
11,TAAAAGGA,0.158
12,CCGACTCC,-0.222
13,AAAGAAGC,-0.0145
14,CCTCCTTC,-0.353
15,CCAAGCGC,-0.229
16,AAATCCAT,0.102
17,AGCTACAG,-0.0843
18,ATGTGAAT,0.121
19,AGTTTACA,0.178
20,ACAGCGCA,-0.156
21,ATCCGGCG,-0.0394
22,ATACGGAT,0.0891

row,Sequence,PBM 8-mer E-score
1,ACTGATCT,-0.0481
2,GAGGACAC,-0.0434
3,ACCTCCAC,-0.149
4,CGTTAGAG,-0.0872
5,ATGTGGTA,0.124
6,GCGAGAGA,-0.103
7,GCTATCCA,-0.222
8,GCGGCAAC,-0.145
9,ACATGCGA,-0.0347
10,AGGATAGG,-0.115
11,GAGTTATA,0.369
12,GGCGAGGA,-0.112
13,TCGTCAGA,-0.0502
14,GCCATACC,-0.261
15,CGGACTAG,-0.159
16,CCCTTTTA,-0.00136
17,CGTCTTTA,0.0862
18,GATTTTGC,0.0707
19,GCGACACC,-0.247
20,ACCCCTTC,-0.311
21,CATCGCCG,-0.171
22,CCACCGGC,-0.21

row,Sequence,PBM 8-mer E-score
1,CCCTTGCC,-0.332
2,CCGGGAAC,-0.283
3,ATTCTTAA,0.213
4,CAGCACTC,-0.123
5,ATCGGGTC,-0.147
6,ACGTCGCA,-0.21
7,ACTGGGCA,-0.266
8,CGGGCACG,-0.17
9,AACCTTCT,-0.155
10,GTAATATA,0.436
11,CCGCTAGG,-0.25
12,CACCACAA,0.0251
13,GTATGCTA,-0.0261
14,GTAAGAAC,0.0573
15,CTCGTAAC,-0.11
16,AATTTCAA,0.32
17,ACAAACCT,0.102
18,CCATCAGG,-0.358
19,ATATAAGG,0.31
20,TATCACGA,0.175
21,CGTTGCCA,-0.032
22,GGGCTGAA,-0.257

row,Sequence,PBM 8-mer E-score
1,ATCGATTC,0.199
2,ATCGGCTG,0.028
3,CGTGGACC,-0.247
4,AGTTTTTC,0.154
5,AACGCAGA,0.00264
6,AGAGATAA,0.144
7,CACACACG,-0.16
8,CAGCGAAC,-0.127
9,GGAGGCAA,-0.11
10,AGGTCGAG,-0.193
11,GTGTCCCA,-0.104
12,ATCAGGGG,-0.0941
13,AGAAGGGC,-0.284
14,GGCACATA,0.158
15,GCGCAATA,0.143
16,ACGGGTTC,-0.115
17,ACCCTAAT,-0.0259
18,CATAATTA,0.421
19,CTCCGAGC,-0.182
20,AAGATGTA,0.0691
21,TAAGACAA,0.207
